Here are results for 54 molecules from publication PMC4336329 (PLoS ONE, 2015).

SMILES strings stand for the structures. Hit rate of the full screen: of about 310,000 compounds, about 14,000 (4.5%) showed an effect of 50% or more. The effect is printed as a negative number. Some of the results follow.
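Also: peak tail current of the secondary pulse compared with the same well before compound.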

The target of this assay is human ether-à-go-go-related gene (hERG) potassium channel (human, UniProt Q12809). The experiment in a line: primary screen, population patch clamp on CHO cells stably expressing hERG.
human ether-à-go-go-related gene (hERG) potassium channel, sequence (Q12809 whole entry, looked up): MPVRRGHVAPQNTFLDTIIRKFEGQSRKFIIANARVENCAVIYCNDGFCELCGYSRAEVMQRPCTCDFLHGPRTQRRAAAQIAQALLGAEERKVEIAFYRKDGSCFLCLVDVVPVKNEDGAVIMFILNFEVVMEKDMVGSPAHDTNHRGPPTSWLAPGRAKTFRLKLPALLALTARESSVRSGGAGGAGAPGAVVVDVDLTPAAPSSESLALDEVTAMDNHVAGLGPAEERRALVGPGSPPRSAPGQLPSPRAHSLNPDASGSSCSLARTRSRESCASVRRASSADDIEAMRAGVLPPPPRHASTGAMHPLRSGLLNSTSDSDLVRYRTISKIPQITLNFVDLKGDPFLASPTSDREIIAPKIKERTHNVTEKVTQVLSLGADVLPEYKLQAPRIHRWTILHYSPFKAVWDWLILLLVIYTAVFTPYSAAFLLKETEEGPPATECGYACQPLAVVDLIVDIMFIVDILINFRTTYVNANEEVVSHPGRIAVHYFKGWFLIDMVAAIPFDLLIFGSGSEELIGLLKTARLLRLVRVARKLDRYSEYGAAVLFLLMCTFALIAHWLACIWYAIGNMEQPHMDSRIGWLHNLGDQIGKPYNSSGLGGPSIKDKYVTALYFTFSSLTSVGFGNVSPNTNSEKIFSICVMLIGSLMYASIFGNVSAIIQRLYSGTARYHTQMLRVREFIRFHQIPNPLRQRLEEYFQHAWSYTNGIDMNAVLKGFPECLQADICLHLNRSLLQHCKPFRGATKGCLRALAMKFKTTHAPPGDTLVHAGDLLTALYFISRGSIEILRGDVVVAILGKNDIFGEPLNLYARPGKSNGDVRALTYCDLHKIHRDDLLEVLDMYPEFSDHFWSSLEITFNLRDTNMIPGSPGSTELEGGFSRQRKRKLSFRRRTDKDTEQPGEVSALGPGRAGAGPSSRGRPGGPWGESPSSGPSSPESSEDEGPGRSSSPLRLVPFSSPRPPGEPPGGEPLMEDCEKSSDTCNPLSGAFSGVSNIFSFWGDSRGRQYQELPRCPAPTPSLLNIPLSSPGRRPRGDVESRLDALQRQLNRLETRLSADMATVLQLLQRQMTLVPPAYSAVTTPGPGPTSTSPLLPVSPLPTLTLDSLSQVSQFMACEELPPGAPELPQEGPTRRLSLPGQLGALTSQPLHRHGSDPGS
As to `COc1ccc([N+](=O)[O-])cc1NC(=O)c1cn(-c2ccc(Cl)cc2)c(=O)c2ccccc12`, the “hERG current change (%, negative = inhibition) at 10uM” value came out at 14.9%. For `Clc1nc(-c2cccnc2)nc2scc(-c3ccccc3)c12` the value was 4.7%.

In the case of `C=Cc1ccc2c(c1)OCCOCCOCCOCCOCCO2`, the “hERG current change (%, negative = inhibition) at 10uM” value is given as -71.2%.

Consider `CC(CC(=O)NCc1ccc(Cl)cc1)S(=O)(=O)c1ccc2c(c1)NC(=O)CO2` (stereo not drawn), for which the “hERG current change (%, negative = inhibition) at 10uM” value is given as -30.6%. Under `CCCOc1ccc2c3c(c(=O)oc2c1)CCCC3` stands -3.23%; under `Cc1ccc(-n2nc3c(n2)/C(=N/O)CC/C3=N\O)cc1`, -1.93%. For `c1ccc(C2[C@H]3CN(Cc4cccnc4)[C@H](c4ccccc4)C34CC2(c2ccccc2)C4)cc1` (stereo partly drawn) the value was -17.6%. For `CCOc1ccc(NC(=O)CC2C(=O)N(c3ccccc3)C(=O)N2CCc2cccs2)cc1` (stereo not drawn) the value was -28.2%. With `O=C(CN1C(=O)c2cccc3cccc(c23)C1=O)N1CCCCC1`, the “hERG current change (%, negative = inhibition) at 10uM” value is on record as 0.0571%. Take `CCN(CC)CCCOC(=O)C(c1ccccc1)c1ccccc1.Cl`: the “hERG current change (%, negative = inhibition) at 10uM” value was -56.5%.

With `CCC1C(=O)CC(c2ccccc2)NC1c1ccccc1` (stereo not drawn), the “hERG current change (%, negative = inhibition) at 10uM” value is -21.4%. Turning to `COc1cc2[nH]c(=S)n(C3CCCC3)c(=O)c2cc1OC`, the “hERG current change (%, negative = inhibition) at 10uM” value worked out at 5.28%.

In the case of `C1COCCO1.Cc1onc(-c2ccccc2)c1C(=O)Nc1ccccc1C#N`, the “hERG current change (%, negative = inhibition) at 10uM” value is recorded as 4.1%. For `O=S(=O)(/N=C(/Nc1ccccc1F)c1ccccc1)c1ccccc1` the value was 4.57%; for `Cc1ccsc1C(=O)C1CCCN(Cc2cccc(OCCO)c2)C1` (stereo not drawn), -16.3%.

Regarding `CCCCN(CCCC)Cc1ccc(C(=O)NN)o1`, the “hERG current change (%, negative = inhibition) at 10uM” value is recorded as 5.36%. Regarding `CC(C)c1ccc(CN(C(=O)c2cccs2)C2CCS(=O)(=O)C2)cc1` (stereo not drawn), the “hERG current change (%, negative = inhibition) at 10uM” value was -45.9%. For `COC(=O)c1ccc(N2CCN(C)CC2)c(NC(=O)c2cccnc2)c1` the value was -2.77%.

For the molecule `CCn1cc(C(=O)NC2CCCc3c2cnn3-c2cccc(C)c2C)cn1` (stereo not drawn), the “hERG current change (%, negative = inhibition) at 10uM” value was 12.4%. Under `O=C1CC(C(=O)Nc2ccccc2)S/C(=N\NC(=O)c2ccccc2Cl)N1` (stereo not drawn) stands 16.5%; under `CC1CCCN(C(=O)CCCn2c(=S)[nH]c3ccccc3c2=O)C1` (stereo not drawn), -1.31%; under `CCOc1cccc(C(=O)Nc2ccc(NC(=O)c3ccccc3)c(C)c2)c1`, -16.3%. Regarding `COc1ccc2cc3c(N)nn(C(=O)c4ccc(F)cc4)c3nc2c1`, the “hERG current change (%, negative = inhibition) at 10uM” value was 11.4%. Take `O=C(Cc1cccs1)N1CCC(c2nc3c(nnn3Cc3ccccc3)c(=O)[nH]2)CC1`: the “hERG current change (%, negative = inhibition) at 10uM” value was -56%.

For the molecule `O=C(Cc1cc(=O)[nH]c(=O)[nH]1)NCC1CCCO1` (stereo not drawn), the “hERG current change (%, negative = inhibition) at 10uM” value was found to be 5.69%.

For `O=C(c1ccc(Cl)cc1)c1ccc(Oc2cc(NN3CCCCC3)c([N+](=O)[O-])cc2[N+](=O)[O-])cc1`, the “hERG current change (%, negative = inhibition) at 10uM” value was found to be 0.565%. Consider `O=C(CCC(=O)Nc1nnc(C2CCCCC2)s1)Nc1ccccc1`, for which the “hERG current change (%, negative = inhibition) at 10uM” value is 27.6%. For `CCN1CCN(Cc2ccc(NC(=O)c3ccc(C)c(NC(=O)C(=O)c4c[nH]c5ccccc45)c3)cc2C(F)(F)F)CC1` the value was 9.38%; for `COc1ccc(NC(=O)COC(=O)CCCC2=NS(=O)(=O)c3ccccc3N2)cc1`, 15.3%; for `O=C(NCCCCCCNC(=O)OCCO)OCCO`, 28.4%. For `CCOc1ccc(C2NC(=O)c3sc(=S)n(-c4ccccc4)c3N2)cc1` (stereo not drawn) the value was 1.7%; for `Cc1cc(C)n2nc(SCCCC(=O)c3ccc(F)cc3)nc2n1`, -13.9%; for `C=CCn1c(O)c(/C=N/NC(=O)c2ccncc2)c(=O)[nH]c1=O`, 20.2%. Under `O=C(NC1CCC(O)CC1)c1cccc2cccnc12` (stereo not drawn) stands 7.2%; under `CCN1C(=O)/C(=C/c2cccs2)S/C1=N\S(=O)(=O)c1ccc(C)cc1`, 23.1%; under `COc1c2ccoc2c(OC)c2oc(=O)ccc12`, -5.65%.

`N#Cc1ccccc1COc1ccc(/C=C/C(=O)O)cc1`: the “hERG current change (%, negative = inhibition) at 10uM” value is reported as 17.8%.

Regarding `COc1ccc(OC)c(C(C(=O)NC2CCCCC2)N(C(=O)c2snc(C(N)=O)c2N)c2ccccc2OC)c1` (stereo not drawn), the “hERG current change (%, negative = inhibition) at 10uM” value was 14.8%. With `CC(C)(C)[C@H]1C=C(C(=O)NCc2nc3ccccc3[nH]2)O[C@@H](OCCCCO)C1`, the “hERG current change (%, negative = inhibition) at 10uM” value was -18%. For `Fc1ccc(-c2noc(C3CCN(Cc4cccnc4)CC3)n2)cc1` the value was -51.5%; for `COc1ccc2c(c1)[C@H]1[C@H](CO2)[C@H](c2ccccc2)[C@]2(C)C(=O)Nc3cc(F)c(F)cc3C(=O)N12`, 5.99%; for `CSc1ccc(NC(=O)Nc2ccccc2C(N)=O)cc1`, 7.02%. For `CC(C)c1ccc(NC(=O)COC(=O)c2cc(=O)[nH]c3ccccc23)cc1` the value was -8.12%; for `CC1(OC(=O)C2CCCC2)C(=O)C=C2C=C(c3ccsc3)N(C3CC3)C=C2C1=O` (stereo not drawn), 16.5%.

Consider `COc1ccccc1C(=O)Nc1ccc(S(=O)(=O)Nc2cnc3ccccc3n2)cc1`, for which the “hERG current change (%, negative = inhibition) at 10uM” value is -2.74%. Under `CCc1ccccc1Nc1nc(N)nc(COC(=O)c2c(C)noc2C)n1` stands -4.82%; under `COC(=O)C1C(=O)C=C(Nc2ccc(F)cc2F)CC1c1ccccc1` (stereo not drawn), -16.9%; under `Cn1cccc1-c1nc2ccc(NC(=O)c3ccc([N+](=O)[O-])cc3)cc2[nH]1`, -10.5%. For `O=c1ccc(OCCOc2ccccc2)nn1-c1ccccc1` the value was -13.8%; for `Cc1ccc(S(=O)(=O)Cc2ccc(C(=O)NCCCN3CCCC3=O)o2)cc1`, 8.72%. Consider `CCOC(=O)c1c(S(=O)(=O)NCC2CCN(Cc3cccc(F)c3)CC2)c(C)n(C)c1C`, for which the “hERG current change (%, negative = inhibition) at 10uM” value was -22.7%. As for `Cc1cccc(CNC(=O)C(C)n2nc(C)c3c(C)n(-c4ccccc4)nc3c2=O)c1` (stereo not drawn), the “hERG current change (%, negative = inhibition) at 10uM” value was -18.3%. Take `Cc1ccc(N(CC(=O)NCc2ccc(F)cc2)S(=O)(=O)c2c(C)n[nH]c2C)cc1`: the “hERG current change (%, negative = inhibition) at 10uM” value is recorded as -22%. For `c1ccc2c(Nc3nnc(-c4ccncc4)s3)cccc2c1` the value was -14.6%.
